In paper PMC4336329 (PLoS ONE, 2015):
In all, about 310,000 compounds went through this assay and about 14,000 (4.5%) showed an effect of 50% or more. The effect is printed as a negative number. The list shows a part of the results.

Target: human ether-à-go-go-related gene (hERG) potassium channel (human, UniProt Q12809)
Experiment: primary screen, population patch clamp on CHO cells stably expressing hERG
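Also: peak tail current of the secondary pulse compared with the same well before compound.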

Chain of human ether-à-go-go-related gene (hERG) potassium channel (Q12809 whole entry, looked up): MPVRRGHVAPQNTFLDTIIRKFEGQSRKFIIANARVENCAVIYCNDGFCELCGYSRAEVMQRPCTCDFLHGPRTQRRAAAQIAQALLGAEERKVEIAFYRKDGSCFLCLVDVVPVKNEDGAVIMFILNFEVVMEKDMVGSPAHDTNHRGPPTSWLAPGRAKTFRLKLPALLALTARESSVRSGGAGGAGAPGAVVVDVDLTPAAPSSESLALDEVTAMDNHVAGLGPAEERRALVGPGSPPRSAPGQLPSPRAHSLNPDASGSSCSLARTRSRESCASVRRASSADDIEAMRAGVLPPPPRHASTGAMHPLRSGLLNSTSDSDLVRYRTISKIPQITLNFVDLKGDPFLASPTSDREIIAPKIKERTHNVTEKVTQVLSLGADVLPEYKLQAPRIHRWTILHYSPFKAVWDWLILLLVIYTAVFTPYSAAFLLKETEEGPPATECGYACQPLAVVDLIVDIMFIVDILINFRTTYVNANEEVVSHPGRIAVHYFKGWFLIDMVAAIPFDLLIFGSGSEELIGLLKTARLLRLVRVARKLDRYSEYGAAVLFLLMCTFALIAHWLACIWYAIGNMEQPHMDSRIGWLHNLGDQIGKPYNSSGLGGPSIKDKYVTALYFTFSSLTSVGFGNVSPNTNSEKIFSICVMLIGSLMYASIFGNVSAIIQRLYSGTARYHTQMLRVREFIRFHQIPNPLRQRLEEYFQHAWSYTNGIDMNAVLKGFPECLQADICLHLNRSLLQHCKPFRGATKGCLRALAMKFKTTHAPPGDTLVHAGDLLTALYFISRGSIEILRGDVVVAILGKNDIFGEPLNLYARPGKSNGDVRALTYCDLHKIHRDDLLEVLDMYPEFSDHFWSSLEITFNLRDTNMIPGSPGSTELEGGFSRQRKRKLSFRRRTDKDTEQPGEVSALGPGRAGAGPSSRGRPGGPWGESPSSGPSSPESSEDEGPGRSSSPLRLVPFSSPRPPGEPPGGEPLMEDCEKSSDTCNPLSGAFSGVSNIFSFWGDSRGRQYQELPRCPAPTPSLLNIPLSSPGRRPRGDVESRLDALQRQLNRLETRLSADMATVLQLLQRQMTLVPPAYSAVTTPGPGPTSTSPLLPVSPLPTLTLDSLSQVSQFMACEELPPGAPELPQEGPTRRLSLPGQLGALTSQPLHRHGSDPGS

**Q.** For `Cc1ccc(NC(=O)COC(=O)COc2ccc(Cl)cc2C)c([N+](=O)[O-])c1`, which “hERG current change (%, negative = inhibition) at 10uM” value is on record?
**A.** -2.13%

**Q.** For `Cc1cc(C)c(C)c(OCCOCCN2CCOCC2)c1`, which “hERG current change (%, negative = inhibition) at 10uM” value is on record?
**A.** -6.76%

**Q.** For `CCC(=O)Nc1cc(C(=O)OCc2ccc(C(=O)Oc3ccccc3)cc2)ccc1C`, which “hERG current change (%, negative = inhibition) at 10uM” value is on record?
**A.** 6.38%

**Q.** How did the “hERG current change (%, negative = inhibition) at 10uM” value turn out when `CC(=O)c1cc(C#N)c(SCC(=O)OC(C)C)nc1C` was run?
**A.** -5.79%

**Q.** For `CCOc1cc(CNCc2ccncc2)cc(Br)c1OCc1ccccc1F.Cl`, which “hERG current change (%, negative = inhibition) at 10uM” value is on record?
**A.** -24.1%

**Q.** For `Cc1ccc(C(=O)N2CCN(c3ccccc3)CC2)cc1S(=O)(=O)N1CCCC1`, which “hERG current change (%, negative = inhibition) at 10uM” value is on record?
**A.** -31.2%

**Q.** How did the “hERG current change (%, negative = inhibition) at 10uM” value turn out when `O=C(/C(C=Nc1ccc(Br)cc1)=C(/O)c1ccco1)C(F)(F)F` was run?
**A.** -52.6%

**Q.** `COC(=O)c1ccc(C(=O)Nc2ccc3nc(-c4ccncc4)[nH]c3c2)cc1` was tested. Which “hERG current change (%, negative = inhibition) at 10uM” value did it give?
**A.** 18%

**Q.** For `COc1ccccc1CC(=O)N1CCN(c2cccc(C(F)(F)F)c2)CC1`, which “hERG current change (%, negative = inhibition) at 10uM” value is on record?
**A.** -9.71%

**Q.** For `CCn1c(=O)cc(SCC(=O)Nc2ccc3c(c2)OCCO3)c2ccccc21`, which “hERG current change (%, negative = inhibition) at 10uM” value is on record?
**A.** 14.8%

**Q.** How did the “hERG current change (%, negative = inhibition) at 10uM” value turn out when `CCN1CCN(C(=O)CCc2nnc3ccc(N4CCN(c5cccc(OC)c5)CC4)nn23)CC1` was run?
**A.** -5.55%

**Q.** How did the “hERG current change (%, negative = inhibition) at 10uM” value turn out when `O=Cc1ccc(OCCN2CCCC2=O)cc1` was run?
**A.** -11.8%

**Q.** With `Cc1ccc(-c2csc(NC(=S)NC(=O)c3ccco3)n2)cc1` as the molecule, how does the “hERG current change (%, negative = inhibition) at 10uM” value read?
**A.** 3.36%

**Q.** Which “hERG current change (%, negative = inhibition) at 10uM” value does the source give for `O=C(COC(=O)Cc1ccc(Cl)cc1)NC1CCCC1` here?
**A.** 16.1%

**Q.** `COc1ccc(CCNC(=O)CSc2nc3sc(C(=O)O)c(C)c3c(=O)[nH]2)cc1OC` was tested. Which “hERG current change (%, negative = inhibition) at 10uM” value did it give?
**A.** -1.12%

**Q.** How did the “hERG current change (%, negative = inhibition) at 10uM” value turn out when `O=P(COCCOCP(=O)(c1ccccc1)c1ccccc1)(c1ccccc1)c1ccccc1` was run?
**A.** -8.03%

**Q.** With `CN(Cc1c(F)cccc1Cl)C(=O)c1cccc(S(=O)(=O)NCc2ccccc2)c1` as the molecule, how does the “hERG current change (%, negative = inhibition) at 10uM” value read?
**A.** -28%

**Q.** `CCOc1ccccc1N(C)C(=O)CCS(=O)(=O)c1ccc2c(c1)NC(=O)CO2` was tested. Which “hERG current change (%, negative = inhibition) at 10uM” value did it give?
**A.** 5.58%

**Q.** With `N#CC1=C(S)N(c2ccccc2)C(c2cccs2)NC1=O` (stereo not drawn) as the molecule, how does the “hERG current change (%, negative = inhibition) at 10uM” value read?
**A.** 1.7%

**Q.** For `Cc1ccccc1C(=O)NNC(=O)/C=C/c1ccccc1`, which “hERG current change (%, negative = inhibition) at 10uM” value is on record?
**A.** 16.4%

**Q.** `CC1CN(S(=O)(=O)c2ccc(C(=O)N3CCc4ccccc43)cc2)CC(C)O1` (stereo not drawn) was tested. Which “hERG current change (%, negative = inhibition) at 10uM” value did it give?
**A.** 15.9%

**Q.** With `CC(NC(=O)C(=O)NCCC1=CCCCC1)c1ccccc1` (stereo not drawn) as the molecule, how does the “hERG current change (%, negative = inhibition) at 10uM” value read?
**A.** 4.74%

**Q.** For `COC(=O)c1cccc2c1NC(=O)C2=O`, which “hERG current change (%, negative = inhibition) at 10uM” value is on record?
**A.** 8.85%

**Q.** How did the “hERG current change (%, negative = inhibition) at 10uM” value turn out when `CCN(CC)C(=O)Cn1cc(C(=O)C(=O)NCc2cccnc2)c2ccccc21` was run?
**A.** 15%

**Q.** With `O=c1nc2n(Cc3ccccc3)c3ccccc3cc-2c(=O)[nH]1` as the molecule, how does the “hERG current change (%, negative = inhibition) at 10uM” value read?
**A.** 2.67%

**Q.** With `COc1cc(NC(=O)CSc2nc3[nH]ncc3c(=O)n2-c2ccc(Cl)cc2)cc(OC)c1` as the molecule, how does the “hERG current change (%, negative = inhibition) at 10uM” value read?
**A.** 12.3%

**Q.** For `Cc1ccc(-c2ccc(CO)o2)cc1N`, which “hERG current change (%, negative = inhibition) at 10uM” value is on record?
**A.** 9.48%

**Q.** `CC1CCCN(C(=O)c2ccc3c(=O)n(C4CCCC4)c(=S)[nH]c3c2)C1` (stereo not drawn) was tested. Which “hERG current change (%, negative = inhibition) at 10uM” value did it give?
**A.** 7.81%

**Q.** `Cc1ccccc1-c1cc2nc(C)c(C)c(=O)n2[nH]1` was tested. Which “hERG current change (%, negative = inhibition) at 10uM” value did it give?
**A.** 10.2%

**Q.** With `Cc1oc(-c2ccccc2Cl)nc1CS(=O)CC(=O)NCc1cccs1` (stereo not drawn) as the molecule, how does the “hERG current change (%, negative = inhibition) at 10uM” value read?
**A.** -7.98%

**Q.** For `Cn1cnc2c1c(=O)[nH]c(=O)n2C`, which “hERG current change (%, negative = inhibition) at 10uM” value is on record?
**A.** 2.3%

**Q.** How did the “hERG current change (%, negative = inhibition) at 10uM” value turn out when `ClC1(Cl)CC1CSc1nc2ccccc2[nH]1` (stereo not drawn) was run?
**A.** -16.7%

**Q.** For `CCCN(CC(=O)Nc1ccc(C(N)=O)cc1)CC(=O)Nc1cc(Cl)ccc1Cl`, which “hERG current change (%, negative = inhibition) at 10uM” value is on record?
**A.** 12.5%

**Q.** `COc1ccccc1NC(=O)c1ccc(-c2ccccc2F)o1` was tested. Which “hERG current change (%, negative = inhibition) at 10uM” value did it give?
**A.** 12.7%

**Q.** How did the “hERG current change (%, negative = inhibition) at 10uM” value turn out when `CC(=O)N(Cc1ccco1)C1(C(=O)NC2CCCCC2)CCCCC1` was run?
**A.** -0.309%

**Q.** Which “hERG current change (%, negative = inhibition) at 10uM” value does the source give for `COc1ccc(OCCSc2nc(C)c(Cc3ccccc3)c(=O)[nH]2)cc1` here?
**A.** -5%

**Q.** `CCOC(=O)Nc1sc2c(c1C(=O)OCC)CCC2` was tested. Which “hERG current change (%, negative = inhibition) at 10uM” value did it give?
**A.** 11.6%

**Q.** With `C/C(=N\NC(=O)c1ccc(CN2CCc3ccccc3C2)cc1)c1ccccc1O` as the molecule, how does the “hERG current change (%, negative = inhibition) at 10uM” value read?
**A.** -5.01%

**Q.** How did the “hERG current change (%, negative = inhibition) at 10uM” value turn out when `Cc1ccc(NC(=O)C2CCCN(C3=NS(=O)(=O)c4ccccc43)C2)c(O)c1` (stereo not drawn) was run?
**A.** -33.6%

**Q.** With `CCc1ncc(C(O)c2cccc(OC)c2OC)n1C` (stereo not drawn) as the molecule, how does the “hERG current change (%, negative = inhibition) at 10uM” value read?
**A.** 7.01%

**Q.** Which “hERG current change (%, negative = inhibition) at 10uM” value does the source give for `CCn1cc(C(=O)N2CC(C)CC(C)C2)c(=O)c2cc(S(=O)(=O)N(C)C)ccc21` (stereo not drawn) here?
**A.** -8.98%

**Q.** `COc1ccc(OC)c(-c2csc(NC(=O)Cc3ccc(F)cc3)n2)c1` was tested. Which “hERG current change (%, negative = inhibition) at 10uM” value did it give?
**A.** 11.5%

**Q.** `COc1cccc(NC(=O)c2cc(C(=O)Nc3cccc(OC)c3)n(C)n2)c1` was tested. Which “hERG current change (%, negative = inhibition) at 10uM” value did it give?
**A.** 10.7%

**Q.** With `COc1ccc(Br)cc1CN(C)C(=O)c1cc(Cl)c2c(c1)OCCO2` as the molecule, how does the “hERG current change (%, negative = inhibition) at 10uM” value read?
**A.** -0.338%

**Q.** How did the “hERG current change (%, negative = inhibition) at 10uM” value turn out when `CCC(=O)Nc1ccnc(-c2cccnc2)n1` was run?
**A.** -11.5%

**Q.** Which “hERG current change (%, negative = inhibition) at 10uM” value does the source give for `Cc1nc2ncnn2c(C)c1CCC(=O)NC(C)c1ccc2c(c1)OCCO2` (stereo not drawn) here?
**A.** -11.8%

**Q.** `COc1ccccc1OCC(=O)Nc1cccc(-c2nnc(-c3ccco3)o2)c1` was tested. Which “hERG current change (%, negative = inhibition) at 10uM” value did it give?
**A.** -3.01%

**Q.** Which “hERG current change (%, negative = inhibition) at 10uM” value does the source give for `O=c1cc(-c2ccc([N+](=O)[O-])cc2)nc2cc(-c3ccc(Cl)cc3)[nH]n12` here?
**A.** 7.56%

**Q.** For `CN(Cc1ccccc1)C(=O)C1CCCN(Cc2cccc(Cl)c2)C1.O=C(O)C(=O)O` (stereo not drawn), which “hERG current change (%, negative = inhibition) at 10uM” value is on record?
**A.** -23.5%

**Q.** For `COc1cc(NC(=O)C/C(C)=N/NC(=O)C(=O)NC2CCCCC2)c(OC)cc1Cl`, which “hERG current change (%, negative = inhibition) at 10uM” value is on record?
**A.** -91.2%

**Q.** `CCc1c(C(=O)Nc2ccncc2)csc1C` was tested. Which “hERG current change (%, negative = inhibition) at 10uM” value did it give?
**A.** 4.67%

**Q.** For `CC(=O)Nc1nc(C)c(Oc2ccc(Cl)cc2Cl)c(=O)[nH]1`, which “hERG current change (%, negative = inhibition) at 10uM” value is on record?
**A.** 10.5%

**Q.** With `COc1cc(CNCCN2CCOCC2)ccc1OCc1ccccc1Cl.Cl` as the molecule, how does the “hERG current change (%, negative = inhibition) at 10uM” value read?
**A.** -45.7%

**Q.** With `Cc1onc(-c2c(Cl)cccc2Cl)c1C(=O)c1c[nH]c(C(=O)NC2CC2)c1` as the molecule, how does the “hERG current change (%, negative = inhibition) at 10uM” value read?
**A.** 13.7%

**Q.** With `CC(C)c1ccc(NC2CCCN(C(=O)CCN3CCOCC3)C2)cc1` (stereo not drawn) as the molecule, how does the “hERG current change (%, negative = inhibition) at 10uM” value read?
**A.** 0.518%

**Q.** For `C=CCCO[C@@H]1O[C@@H](C)[C@H](O)C[C@H]1O`, which “hERG current change (%, negative = inhibition) at 10uM” value is on record?
**A.** 3.8%

**Q.** With `CCOc1ccccc1C(=O)Nc1ccccc1O` as the molecule, how does the “hERG current change (%, negative = inhibition) at 10uM” value read?
**A.** 5.59%
